{"source": "the supplement of paper PMC5499739", "note": "Whole data set: some 16,000 sequences, median “Z-score” near -0.37, cut for the highest 2% near 3.1. This is one part of the list.", "data": [{"test_system": "RBM10 RRM1-ZnF-RRM2 (GST-tagged construct)", "assay": "RNAcompete 7-mer binding Z-score; higher = stronger binding preference", "summary_of_the_method": "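In 1 ml Hepes pH 7.8 buffer with KCl, NaCl, glycerol, DTT, BSA and glutathione Sepharose beads, GST-tagged RBM10 constructs (20 pmol) were incubated for 30 min at 4°C with 1.5 nmol of a designed pool of 241 399 RNAs up to 41 nt. Four 2-min washes at 4°C followed, and bound RNA was detected by microarray hybridisation. Heptamer motif enrichment was expressed as a one-sided Z-score across probes containing each motif.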", "values": [{"sequence": "UGAUCGA", "RNAcompete 7-mer binding Z-score": -0.246}, {"sequence": "UUUAGGC", "RNAcompete 7-mer binding Z-score": -0.278}, {"sequence": "AACUUUC", "RNAcompete 7-mer binding Z-score": -0.81}, {"sequence": "CUAUGAG", "RNAcompete 7-mer binding Z-score": -0.169}, {"sequence": "GGGGCAA", "RNAcompete 7-mer binding Z-score": 2.84}, {"sequence": "CCUACCU", "RNAcompete 7-mer binding Z-score": -0.857}, {"sequence": "UAGCUCC", "RNAcompete 7-mer binding Z-score": -0.694}, {"sequence": "UGUACGC", "RNAcompete 7-mer binding Z-score": -0.282}, {"sequence": "CUCCGCG", "RNAcompete 7-mer binding Z-score": -0.628}, {"sequence": "UCCCCUG", "RNAcompete 7-mer binding Z-score": -0.435}, {"sequence": "AAGGCUG", "RNAcompete 7-mer binding Z-score": 0.701}, {"sequence": "UAACCGG", "RNAcompete 7-mer binding Z-score": -0.0197}, {"sequence": "CGAAUUA", "RNAcompete 7-mer binding Z-score": -0.362}, {"sequence": "UCUGUAG", "RNAcompete 7-mer binding Z-score": -0.431}, {"sequence": "UGAAGCC", "RNAcompete 7-mer binding Z-score": -0.562}, {"sequence": "AUUAAAC", "RNAcompete 7-mer binding Z-score": -0.664}, {"sequence": "AGUGCCA", "RNAcompete 7-mer binding Z-score": -0.107}, {"sequence": "GACCUAU", "RNAcompete 7-mer binding Z-score": -0.959}, {"sequence": "ACUUGGA", "RNAcompete 7-mer binding Z-score": -0.0233}, {"sequence": "CUCAUUG", "RNAcompete 7-mer binding Z-score": -0.712}, {"sequence": "AAAAUUC", "RNAcompete 7-mer binding Z-score": -0.628}, {"sequence": "UGGUGCC", "RNAcompete 7-mer binding Z-score": 0.232}, {"sequence": "GUGUCGA", "RNAcompete 7-mer binding Z-score": 0.173}, {"sequence": "GUCGCUU", "RNAcompete 7-mer binding Z-score": -0.555}, {"sequence": "CCACCGC", "RNAcompete 7-mer binding Z-score": -0.73}, {"sequence": "GGAAAAC", "RNAcompete 7-mer binding Z-score": 1.44}, {"sequence": "ACCAAGA", "RNAcompete 7-mer binding Z-score": -0.413}, {"sequence": "UGCUUGU", "RNAcompete 7-mer binding Z-score": -0.857}, {"sequence": "GCAUGGU", "RNAcompete 7-mer binding Z-score": 0.807}, {"sequence": "UCACACU", "RNAcompete 7-mer binding Z-score": -0.759}, {"sequence": "CCCUGUG", "RNAcompete 7-mer binding Z-score": -0.471}, {"sequence": "ACAGGAU", "RNAcompete 7-mer binding Z-score": 1.51}, {"sequence": "UGACCAG", "RNAcompete 7-mer binding Z-score": 0.0969}, {"sequence": "GCUGGCA", "RNAcompete 7-mer binding Z-score": 0.0896}, {"sequence": "CAAAUAA", "RNAcompete 7-mer binding Z-score": -0.5}, {"sequence": "CUGUCCC", "RNAcompete 7-mer binding Z-score": -0.825}, {"sequence": "ACACCUC", "RNAcompete 7-mer binding Z-score": -0.759}, {"sequence": "GCAAGGG", "RNAcompete 7-mer binding Z-score": 3.28}, {"sequence": "CAAAGGU", "RNAcompete 7-mer binding Z-score": 1.62}, {"sequence": "GACAACC", "RNAcompete 7-mer binding Z-score": -0.5}, {"sequence": "CCAGUCG", "RNAcompete 7-mer binding Z-score": -0.439}, {"sequence": "GUGCCUA", "RNAcompete 7-mer binding Z-score": -0.366}, {"sequence": "CUUAAAU", "RNAcompete 7-mer binding Z-score": -0.77}, {"sequence": "AUACGAC", "RNAcompete 7-mer binding Z-score": -0.286}, {"sequence": "UUCUGCA", "RNAcompete 7-mer binding Z-score": -0.89}, {"sequence": "UUUAGUA", "RNAcompete 7-mer binding Z-score": -0.562}, {"sequence": "UGUGAUC", "RNAcompete 7-mer binding Z-score": -0.482}, {"sequence": "CCUCCUG", "RNAcompete 7-mer binding Z-score": -0.912}, {"sequence": "CUUACUU", "RNAcompete 7-mer binding Z-score": -0.894}, {"sequence": "CAAUAUU", "RNAcompete 7-mer binding Z-score": -0.519}, {"sequence": "UGCCGAG", "RNAcompete 7-mer binding Z-score": -0.213}, {"sequence": "CUAGGUG", "RNAcompete 7-mer binding Z-score": 0.745}, {"sequence": "CCUUGUA", "RNAcompete 7-mer binding Z-score": -0.795}, {"sequence": "CUAUGGG", "RNAcompete 7-mer binding Z-score": 1.08}, {"sequence": "ACAUGGC", "RNAcompete 7-mer binding Z-score": 0.614}, {"sequence": "CUGUGCU", "RNAcompete 7-mer binding Z-score": -0.777}, {"sequence": "UACCAAU", "RNAcompete 7-mer binding Z-score": -0.446}, {"sequence": "UGAUGAG", "RNAcompete 7-mer binding Z-score": 0.508}, {"sequence": "CUAGGGG", "RNAcompete 7-mer binding Z-score": 1.97}, {"sequence": "AUCGCUC", "RNAcompete 7-mer binding Z-score": -0.759}, {"sequence": "GGCCCCG", "RNAcompete 7-mer binding Z-score": -0.286}, {"sequence": "UGAAUGG", "RNAcompete 7-mer binding Z-score": 2.22}, {"sequence": "GGAAGCG", "RNAcompete 7-mer binding Z-score": 2.78}, {"sequence": "CGUAGGU", "RNAcompete 7-mer binding Z-score": 1.23}, {"sequence": "UCUCUUU", "RNAcompete 7-mer binding Z-score": -0.799}, {"sequence": "UAGAGAU", "RNAcompete 7-mer binding Z-score": 0.33}, {"sequence": "UGCAUGU", "RNAcompete 7-mer binding Z-score": -0.227}, {"sequence": "CAGGGGU", "RNAcompete 7-mer binding Z-score": 2.91}, {"sequence": "AGCCCAG", "RNAcompete 7-mer binding Z-score": -0.453}, {"sequence": "GACUAAU", "RNAcompete 7-mer binding Z-score": -0.442}, {"sequence": "AUAGUAC", "RNAcompete 7-mer binding Z-score": -0.195}, {"sequence": "UAGAGUU", "RNAcompete 7-mer binding Z-score": -0.0306}, {"sequence": "CGGUAUG", "RNAcompete 7-mer binding Z-score": 0.683}, {"sequence": "GACCCGA", "RNAcompete 7-mer binding Z-score": -0.657}, {"sequence": "UCACGGU", "RNAcompete 7-mer binding Z-score": -0.286}, {"sequence": "UGCCGGA", "RNAcompete 7-mer binding Z-score": -0.0707}, {"sequence": "GAUCUUA", "RNAcompete 7-mer binding Z-score": -0.661}, {"sequence": "GAUCCGG", "RNAcompete 7-mer binding Z-score": 0.0386}, {"sequence": "CCGAUGG", "RNAcompete 7-mer binding Z-score": 0.516}, {"sequence": "CGGAUUG", "RNAcompete 7-mer binding Z-score": 0.825}, {"sequence": "GCCAGAG", "RNAcompete 7-mer binding Z-score": 0.319}, {"sequence": "GGACCUA", "RNAcompete 7-mer binding Z-score": -0.151}, {"sequence": "UCCAGGC", "RNAcompete 7-mer binding Z-score": -0.581}, {"sequence": "UGCUACA", "RNAcompete 7-mer binding Z-score": -0.435}, {"sequence": "ACAUGUG", "RNAcompete 7-mer binding Z-score": 0.334}, {"sequence": "UCACUGG", "RNAcompete 7-mer binding Z-score": -0.00148}, {"sequence": "AUACUGG", "RNAcompete 7-mer binding Z-score": 0.213}, {"sequence": "GCCUCCG", "RNAcompete 7-mer binding Z-score": -0.668}, {"sequence": "AGGGAGG", "RNAcompete 7-mer binding Z-score": 3.18}, {"sequence": "GUGUGUG", "RNAcompete 7-mer binding Z-score": 1.02}, {"sequence": "AGAGGCU", "RNAcompete 7-mer binding Z-score": -0.369}, {"sequence": "GCGGCAU", "RNAcompete 7-mer binding Z-score": 0.428}, {"sequence": "UACAACA", "RNAcompete 7-mer binding Z-score": 0.00944}, {"sequence": "UAAGAUC", "RNAcompete 7-mer binding Z-score": -0.409}, {"sequence": "UGCAGGA", "RNAcompete 7-mer binding Z-score": 1.02}, {"sequence": "CAGGACU", "RNAcompete 7-mer binding Z-score": 0.45}, {"sequence": "GUAGGUG", "RNAcompete 7-mer binding Z-score": 3.25}, {"sequence": "GACACGG", "RNAcompete 7-mer binding Z-score": 1.16}, {"sequence": "CGAAAAU", "RNAcompete 7-mer binding Z-score": -0.475}, {"sequence": "AUCUCGA", "RNAcompete 7-mer binding Z-score": -0.726}, {"sequence": "ACUGGGA", "RNAcompete 7-mer binding Z-score": 2.1}, {"sequence": "GCGGAAC", "RNAcompete 7-mer binding Z-score": 1.09}, {"sequence": "AUUGGAA", "RNAcompete 7-mer binding Z-score": 1.15}, {"sequence": "AAGCAGA", "RNAcompete 7-mer binding Z-score": 0.672}, {"sequence": "UCGUGCC", "RNAcompete 7-mer binding Z-score": -0.653}, {"sequence": "CAGUCCU", "RNAcompete 7-mer binding Z-score": -0.967}, {"sequence": "AUGUUAC", "RNAcompete 7-mer binding Z-score": -0.468}, {"sequence": "GUAAGUG", "RNAcompete 7-mer binding Z-score": 1.23}, {"sequence": "CAUUCCC", "RNAcompete 7-mer binding Z-score": -0.701}, {"sequence": "CGUUGAA", "RNAcompete 7-mer binding Z-score": -0.235}, {"sequence": "UGAGACA", "RNAcompete 7-mer binding Z-score": 0.366}, {"sequence": "CUAUCGU", "RNAcompete 7-mer binding Z-score": -0.646}, {"sequence": "AAUGCAG", "RNAcompete 7-mer binding Z-score": 0.279}, {"sequence": "AAAUGAG", "RNAcompete 7-mer binding Z-score": 0.803}, {"sequence": "GAUGACU", "RNAcompete 7-mer binding Z-score": -0.34}, {"sequence": "AUGACCG", "RNAcompete 7-mer binding Z-score": -0.355}, {"sequence": "UGUUUAC", "RNAcompete 7-mer binding Z-score": -0.661}]}]}
